Experimental data reported in the RNAGym collection of RNA variant scans (doi:10.1101/gad.245936.114).
Variants at the floor of the assay are shown more often than the library holds them.

B1: tRNA (parent)
chain: CUCUCGGUAGCCAAGUUGGUUUAAGGCGCAAGACUUUAAUUUAUCACUACGAAAUCUUGAGAUCGGGCGUUCGACUCGCCCCCGGGAGAUUUUUUCCUCGAGCAA

Variants of: B1
Assay: nonsense suppression (GFP-seq) (ratio to wild type); higher = more function; SUP4oc tRNA, yeast GFP reporter sort-seq
How it was run: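 Each variant's nonsense suppression (GFPSEQ) is a cell-share-weighted bin median GFP/RFP relative to the unmutated parent tRNA. Yeast with genome-integrated tRNA variants from a ~3% random-mutation library, a galactose-driven GFP ochre reporter and RFP were grown in raffinose/galactose medium with 80 mg/L adenine, then sorted into GFP/RFP bins for Illumina sequencing. Variants needed ≥100 reads and ≥30 cells.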

Nonsense suppression, ≤ 0.026:
CGCUCGGCAGCCAAGUUGGUUUAAGGCGCAAGACUUUAAUUUAUCACUACGAAAUCUUGAGAUCGGGCGUUCGACUCGCCCCCGGGAGAUUUUUUCCUCGAGCAA [U2G U8C]
CGCUCGGCAGCCAAGUUGGCUUAAGGCGCAAGACUUUAAUUUAUCACUACGAAAUCUUGAGAUCGGGCGUUCGACUCGCCCCCGGGAGAUUUUUUCCUCGAGCAA [U2G U8C U20C]
CGCUCGGGAGCCAAGUUGGUUUACGGCACAGCACUUUAAUUUAUCACUACGAAAUCUUGAGAUCGGGCGUUCGAGUCGCCCCCGGGAGAUUUUUUCCUCGAGCAA [U2G U8G A24C G28A A31G G32C C75G]
CGCUCGGUAGCCAAGAUGGUUUCAGGCGCAAGACUUUAAUUUAUCACUACGAAAUCUUGAGAUCGGGCGUUCGACUCGCCCCCGGGAGAUUUUUUCCUCGAGCAA [U2G U16A A23C]
CGCUCGGUAGCCAAGGUGGUUUAAGGCGCAAGACUUUAAUUUAUCACUACGAAAUCUUGAGAUCGGGCGUUCGACUCGCCCCCGGGAGAUUUUUUCCUCGAGCAA [U2G U16G]
CGCUCGGUAGCCAAGUCGGUUAAAGGCGCAAGUCUUUAAUUUAUCACUACGAAAUCUUGAGAUCGGGUGUUCGACUCGCCACCGGGAGAUUUUUUCCUCGAGCAA [U2G U17C U22A A33U C68U C81A]
CGCUCGGUAGCCAAGUUGGAUCAAGGCGCAAGACUUUAAUUUAUCACUACGAAAUCUUGAGAUCGGGCGUUCGACUCGCCCCCGGGAGAUUUUUUCCUCGAGCAA [U2G U20A U22C]
CGCUCGGUAGCCAAGUUGGCUUAAGGCGCAAGACUUUAAUUUAUCACUACGAAAUCUUGAGAUCGGGCGUUCGACUCGCCCCCGGGAGAUUUUUUCCUCGAGCAA [U2G U20C]
CGCUCGGUAGCCAAGUUGGCUUAAGGCGCAAGGCUUUAAUUUAUCACUACGAAAUCUUGAGAUCGGGCGUUCGACUCGCCCCCGGGAGAUUUUUUCCUCGAGCAA [U2G U20C A33G]
CGCUCGGUAGCCAAGUUGGUAUAAGGCGCAAGACUUUAAUUUAUCACUACGAAAUCUUGAGAUCGGCCGUUCGACUCGCCCCCGGGAGAUUUUUUCCUCGAGCAA [U2G U21A G67C]
CGCUCGGUAGCCAAGUUGGUCUAAGUCGCAAGACUUUAAUUUAUCACUACGAAAUCUUGAGAUCGGGCGUUCGACUCGCCCCCGGGAGAUUUUUUCCUCGAGCAA [U2G U21C G26U]
CGCUCGGUAGCCAAGUUGGUGUAAGGCGCAAGACUUUAAUUUAUCACUACGAAAUCUUGAGAUCGGGCGUUCGACUCUCCCCCGGGAGAUUUUUUCCUCGAGCAA [U2G U21G G78U]
CGCUCGGUAGCCAAGUUGGUUAAAGGCGCAAGACUUUAAUUUAUCACUACGAAAUCUUGAGAUCGGGCGUUCGACUCGCCCCCGGGAGAUUUUUUCCUCGAGCAA [U2G U22A]
CGCUCGGUAGCCAAGUUGGUUGAAGGCGCAAGACUUUAAUUUAUCACUACGAAAUCAUGAGAUCGGGCGUUCGACUCGCCCCCGGCAGAUUUUUUCCUCGAGCAA [U2G U22G U57A G86C]
CGCUCGGUAGCCAAGUUGGUUUAAGGCGCAAGACGUUAAUUUAUCACUACGAAAUCUUGAGAUCGGGCGUUCGACUCGCCCCCGGGAGAUUUUUUCCUCGAGCAA [U2G U35G]
CGCUCGGUAGCCAAGUUGGUUUAAGGCGCAAGACGUUAAUUUAUCACUACGAAAUCGUGAGAUCGGGCGUUCGACUCGCCCCCGCGAGGUUUUUUCCUCGAGCAA [U2G U35G U57G G85C A89G]
CGCUCGGUAGCCAAGUUGGUUUAAGGCGCAAGACUUUAAUUUAUCACUACGAAAACUUGAGAUCGGGCGUUCGACUGGCCCCCGGGAGAUUUUUUCCUCGAGCAA [U2G U55A C77G]
CGCUCGGUAGCCAAGUUGGUUUAAGGCGCAAGACUUUAAUUUAUCACUACGAAAUCCUGAGAUCGGGCGUUCGACUCGCCCCCGGGAGAUUUUUUCCUCGAGCAA [U2G U57C]
CGCUCGGUAGCCAAGUUGGUUUAAGGCGCAAGACUUUAAUUUAUCACUACGAAAUCCUGCGAUCGGGCGUUCGACUCGCCCCCGGGAGAUUUUUUCCUCGAGCAA [U2G U57C A60C]
CGCUCGGUAGCCAAGUUGGUUUAAGGCGCAAGACUUUAAUUUAUCACUACGAAAUCGUGAGAUCGGGCGUUCGACUCGCCCCCGGGAAAUUUUUUCCUCGAGCAA [U2G U57G G88A]
CGCUCGGUAGCCAAGUUGGUUUAAGGCGCAAGACUUUAAUUUAUCACUACGAAAUCUAGAGAUCGGGCGUUCGACUCGCCCCCGGGAGAUUUUUUCCUCGAGCAA [U2G U58A]
CGCUCGGUAGCCAAGUUGGUUUAAGGCGCAAGACUUUAAUUUAUCACUACGAAAUCUGGAGAUCGGGCGUUCGACUCGCCCCGGGGAGAUUUUUUCCUCGAGCAA [U2G U58G C83G]
CGCUCGGUAGCCAAGUUGGUUUAAGGCGCAAGACUUUAAUUUAUCACUACGAAAUCUUGAGAACGGGCGGUCGCCUCGCCCCCGGGAGAUUUUUUCCUCGAGCAA [U2G U63A U70G A74C]
CGCUCGGUAGCCAAGUUGGUUUAAGGCGCAAGACUUUAAUUUAUCACUACGAAAUCUUGAGAUCGGGCGAUCGACUCGCCGCCGGGAGAUUUUUUCCUCGAGCAA [U2G U70A C81G]
CGCUCGGUAGCCAAGUUGGUUUAAGGCGCAAGACUUUAAUUUAUCACUACGAAAUCUUGAGAUCGGGCGUACGACUCGCCCCCGGGAGAUUUUUUCCUCGAGCAA [U2G U71A]
CGCUCGGUAGCCAAGUUGGUUUAAGGCGCAAGACUUUAAUUUAUCACUACGAAAUCUUGAGAUCGGGCGUCCGACUGGCCCCCGGGAGAUUUUUUCCUCGAGCAA [U2G U71C C77G]
CGCUCGGUAGCCAAGUUGGUUUAAGGCGCAAGACUUUAAUUUAUCACUACGAAAUCUUGAGAUCGGGCGUGCGACUCGCCCCCGGGAGAUUUUUUCCUCGAGCAA [U2G U71G]
CUAUCGGUAGCCAAGUUGGUUUAAGGCGCAAGACUUUAAUUUAUCACUACGAAAUCUUGAGAUCGGGCGUUCGACUCGCCCCCGGGAGAUUUUUUCCUCGAGCAA [C3A]
CUAUCGGUGGCCAAGUUGGUUUAAGGCGCACGACUUUAAUUUAUCACUACGAAAUCUGAAGAUCGGGCGUUCGACUCGCCCCCGGGAGAUUUUUUCCUCGAGCAA [C3A A9G A31C U58G G59A]
CUAUCGGUGGCCAAGUUGGUUUAAGGCGCAAGACUUUAAUUUAUCACUACGAAAUCUUGAGAUGGGGCGUUCGACUCGCCCCCGGGAGAUUUUUUCCUCGAGCAA [C3A A9G C64G]
CUAUCGGUGGCCAAGUUGGUUUAACGCGCAAGACUUUAAUUUAUCACUACGAAAUCUUGAGAUCGGGCGUUCGACUCGCCCCCGGGAGAUUUUUUCCUCGAGCAA [C3A A9G G25C]
CUAUCGGUUGCCAAGUUGGUUUUAGGCGCAAGACUUUAAUUUAUCACUACGAAAUCUUGAGACCGGGCGUUCGACUCGCCCCCGGGAUAUUUUUUCCUCGAGCAA [C3A A9U A23U U63C G88U]
CUAUCGGUUGCCAAGUUGGUUUAAGGCGCAAGACUUUAAUUUAUCACUACGAAAUCUUGAGAUCGGGCGUUCGACUGGCGCCCGGGAGAUUUUUUCCUCGAGCAA [C3A A9U C77G C80G]
CUAUCGGUAGCCCAGUUGGUUUAAGGCGCGAGACUUUAAUUUAUCACUACGAAAUCUUGAGAUCGGCCGUUCGACUCGCCCCCCGGAGAUUUUUUCCUCGAGCAA [C3A A13C A30G G67C G84C]
CUAUCGGUAGCCUAGUUGGUUUAAGGCGUAAGACUUUAAUUUAUCACUACGAAAUCCUGGGAUCGGGCGUUCGACUCGCCCCCGGGAGAUUUUUUCCUCGAGCAA [C3A A13U C29U U57C A60G]
CUAUCGGUAGCCAGGUUGGUUUAAGGCGCAAGACUUUAAUUUAUCACUACGAAAUCUUGAGAUCGGGCGUUCGACUCGCCCCCGGGAGAUUUUUUCCUCGAGCAA [C3A A14G]
CUAUCGGUAGCCAGGUUGGUUUAAGGCGCAAGACUUUAAUUUAUCACUACGAAAUCUUGAGAUCGGGCGUUCCACUCGCCCCCGCGAGAUUUUUUCCUCGAGCAA [C3A A14G G73C G85C]
CUAUCGGUAGCCAUGUUGGUUUAAGGCGCAAGAUCUUAAUUUAUCACUACGAAAUCUUGAGAUCGGGCGUUCGACUCGCCCCCGGGAUAUUUUUUCCUCGAGCAA [C3A A14U C34U U35C G88U]
CUAUCGGUAGCCAUGUUGGUUUAAGGCGCAAGACUUUAAUUUAUCACUACGAAAUCGUGAGAUCGGGCGUCCGACUCGCCCCCGGGAGAUUUUUUCCUCGAGCAA [C3A A14U U57G U71C]
CUAUCGGUAGCCAAGUUGGUUUCAGGCGCAAAACUUUAAUUUAUCACUACGAAAUCUUGAGAUCGGGCGUUCGACUCGCCCCCGGGAGAUUUUUUCCUCGAGCAA [C3A A23C G32A]
CUAUCGGUAGCCAAGUUGGUUUCAGGCGCAAGACUUUAAUUUAUCACUACGAAAUCUUUAGAUCGUGCGUUCGACUCGCCCCCGGGAGAUUUUUUCCUCGAGCAA [C3A A23C G59U G66U]
CUAUCGGUAGCCAAGUUGGUUUGAUGCGCAAGACUUUAAUUUAUCACUACGAAAUCUUGAGAUCGGGCGUUAGACUCGCCCCCGGGAGAUUUUUUCCUCGAGCAA [C3A A23G G25U C72A]
CUAUCGGUAGCCAAGUUGGUUUGAGGCGCAAGACUUUAAUUUAUCACUACGAAAUCUUGAGAUCGGGCGGUCGACUCGCCCCCGGGAGAUUUUUUCCUCGAGCAA [C3A A23G U70G]
CUAUCGGUAGCCAAGUUGGUUUAUGGCGCAAGACUUUAAUUUAUCACUACGAAAUCUUGAGAUCGGGCGUUCGACUCGCCCCCGGGAGAUUUUUUCCUCGAGCAA [C3A A24U]
CUAUCGGUAGCCAAGUUGGUUUAAGGCGCCAGACUUUAAUUUAUCACUACGAAAUCUUGAGAUCGGGCGUUCGACUCGCCCCCGGGAGAUUUUUUCCUCGAGCAA [C3A A30C]
CUAUCGGUAGCCAAGUUGGUUUAAGGCGCGAGACUUUAAUUUAUCACUACGAAAUCUUGAGAUCGGGCGUUCGACUCGCCCCCGGGAGAUUUUUUCCUCGAGCAA [C3A A30G]
CUAUCGGUAGCCAAGUUGGUUUAAGGCGCACGAUUUUAAUUUAUCACUACGAAAUCUUGAGAUCGGGCGUUCUACUCGCCCCCGGGAGAUUUUUUCCUCGAGCAA [C3A A31C C34U G73U]
CUAUCGGUAGCCAAGUUGGUUUAAGGCGCAGGACUUUAAUUUAUCACUACGAAAUCUUGAGAUCGGGCGUUCGACUCGCCCCCGGGAGAUUUUUUCCUCGAGCAA [C3A A31G]
CUAUCGGUAGCCAAGUUGGUUUAAGGCGCAAGCCUUUAAUUUAUCACUACGAAAUCUUGAGAUCGGGCGUUCGACUCGCCCCCGGGAGAUUUUUUCCUCGAGCAA [C3A A33C]
CUAUCGGUAGCCAAGUUGGUUUAAGGCGCAAGCCUUUAAUUUAUCACUACGAAAUCUUGAGAUCGAGCGUUCGACUCGCCCCCGGGAGAUUUUUUCCUCGAGCAA [C3A A33C G66A]
CUAUCGGUAGCCAAGUUGGUUUAAGGCGCAAGGCUUUAAUUUAUCACUACGAAAUCUUGAGAGCGGGCGUUCGACUCGCCCCCGGGAGAUUUUUUCCUCGAGCAA [C3A A33G U63G]
CUAUCGGUAGCCAAGUUGGUUUAAGGCGCAAGUCUUUAAUUUAUCACUACGAAAUCAUGAGAUCGGGCGAUUGACUCGCCCGCGGGAGAUUUUUUCCUCGAGCAA [C3A A33U U57A U70A C72U C82G]
CUAUCGGUAGCCAAGUUGGUUUAAGGCGCAAGACUUUAAUUUAUCACUACGAACUCUUGAGAUCGGGCGUUCGACUCGCCACCGGGAGAUUUUUUCCUCGAGCAA [C3A A54C C81A]
CUAUCGGUAGCCAAGUUGGUUUAAGGCGCAAGACUUUAAUUUAUCACUACGAACUCUUGAGAUCGGGCGUUCCCCUCGCCCCCGGGAGAUUUUUUCCUCGAGCAA [C3A A54C G73C A74C]
